# Test results published in PMC4336329 (PLoS ONE, 2015).
# The campaign covered roughly 310,000 compounds. About 14,000 (4.5%) showed an effect of 50% or more. Effects have a minus sign here. Some of the results follow.
# Target: human ether-à-go-go-related gene (hERG) potassium channel (human, UniProt Q12809)
# Test: primary screen, population patch clamp on CHO cells stably expressing hERG
# 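Also: peak tail current of the secondary pulse compared with the same well before compound.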
# Chain of human ether-à-go-go-related gene (hERG) potassium channel (Q12809 whole entry, looked up): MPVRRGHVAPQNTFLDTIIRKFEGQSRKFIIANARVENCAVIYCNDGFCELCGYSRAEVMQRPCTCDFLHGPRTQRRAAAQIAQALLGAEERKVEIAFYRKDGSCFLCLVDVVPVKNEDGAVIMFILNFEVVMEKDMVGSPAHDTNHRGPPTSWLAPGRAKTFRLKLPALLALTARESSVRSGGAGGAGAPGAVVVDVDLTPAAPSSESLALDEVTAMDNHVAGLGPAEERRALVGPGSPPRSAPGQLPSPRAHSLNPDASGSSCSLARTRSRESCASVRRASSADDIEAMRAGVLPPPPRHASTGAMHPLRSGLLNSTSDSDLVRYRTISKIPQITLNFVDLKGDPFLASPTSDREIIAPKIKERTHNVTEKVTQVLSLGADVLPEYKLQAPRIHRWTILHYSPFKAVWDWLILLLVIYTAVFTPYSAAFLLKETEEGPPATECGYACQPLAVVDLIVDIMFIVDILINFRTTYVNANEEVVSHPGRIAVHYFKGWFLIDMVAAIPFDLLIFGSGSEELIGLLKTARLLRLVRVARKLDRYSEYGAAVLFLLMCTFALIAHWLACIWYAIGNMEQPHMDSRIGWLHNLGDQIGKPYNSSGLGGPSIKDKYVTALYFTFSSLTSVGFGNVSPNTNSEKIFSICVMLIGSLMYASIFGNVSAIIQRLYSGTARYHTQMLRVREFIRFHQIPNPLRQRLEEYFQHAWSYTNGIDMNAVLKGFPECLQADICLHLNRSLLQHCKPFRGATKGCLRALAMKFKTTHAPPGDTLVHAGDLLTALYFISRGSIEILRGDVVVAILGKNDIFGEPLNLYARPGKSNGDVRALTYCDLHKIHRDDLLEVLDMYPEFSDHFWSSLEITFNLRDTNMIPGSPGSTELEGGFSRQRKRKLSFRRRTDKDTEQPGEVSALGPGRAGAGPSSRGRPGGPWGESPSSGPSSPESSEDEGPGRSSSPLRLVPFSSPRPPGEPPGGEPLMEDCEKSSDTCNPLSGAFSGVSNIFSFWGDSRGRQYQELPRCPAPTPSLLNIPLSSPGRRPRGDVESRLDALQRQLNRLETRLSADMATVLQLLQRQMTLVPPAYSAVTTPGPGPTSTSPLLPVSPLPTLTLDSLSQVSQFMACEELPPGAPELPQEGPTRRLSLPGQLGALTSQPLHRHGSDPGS
row,SMILES,"hERG current change (%, negative = inhibition) at 10uM [%]"
1,Cc1ccc(S(=O)(=O)CCC(=O)OCc2ccccc2F)cc1,-1.21
2,CC(C)Oc1ccc(C(=O)/C=C2/C(=O)Nc3ccccc32)cc1,16.1
3,O=C(/C=C/c1ccc(-c2ccccc2)o1)c1ccccc1,3.87
4,Cc1ccc(S(=O)(=O)N2CCC(=O)N(CCOC(=O)Nc3ccc(F)cc3)CC2)cc1,-34
5,COc1ccc(-c2c[n+](CC(=O)N3c4ccccc4Sc4ccccc43)c3n2CCC3)cc1.[Cl-],-38.2
6,CNS(=O)(=O)c1ccc(C(=O)NCC(=O)NC(C)c2cccs2)cc1 (centres unmarked),-1.69
7,O=C(CSc1nc(-c2ccc(F)cc2)cs1)Nc1ccccn1,16.4
8,O=C(Nc1ccc2c(c1)OCO2)c1cc(-c2cccnc2)nc2ccccc12,0.957
9,CCOc1ccc(C(=O)Nc2ccccc2OC(F)F)cc1,0.00868
10,CCn1c2ccccc2c2cc(NC(=O)C(=O)NCC3CCCO3)ccc21 (centres unmarked),-6.57
11,CC(=O)Nc1nc(COc2ccccc2)cs1,-4.04
12,CCS(=O)(=O)N1N=C(c2ccc(NS(C)(=O)=O)cc2)CC1c1ccccc1 (centres unmarked),-62.1
13,COc1ccc2nc(SCC(=O)Nc3ccccc3OC)[nH]c2c1,4.94
14,CCc1nnc(NC(=O)CCC(=O)N2CCN(c3cccc(Cl)c3)CC2)s1,-10.4
15,O=C(Nc1cccc(C(F)(F)F)c1)C1CCCN(S(=O)(=O)c2cnc[nH]2)C1 (centres unmarked),-29.2
16,COc1ccc(S(=O)(=O)Nc2ccccc2C(=O)N2CCOCC2)cc1C,-0.937
17,Cc1cc(C)nc(Nc2ncc(O)n2-c2ccccc2)n1,11.1
18,Cc1ccc(Cn2ccc(NC(=O)c3cc(-c4ccco4)on3)n2)cc1,-2.29
19,CCOc1ccc2[nH]c3nc(SCC(=O)NCC4CCCO4)nnc3c2c1 (centres unmarked),5.01
20,CCOC(=O)c1c(NC(=O)c2ccc(Cl)cc2)csc1C,-0.689
21,C#CC[N+](C)(C)CC#Cc1ccc(C)cc1.[Br-],6.33
22,COc1cc2c(cc1NC(=O)CSc1ccc(Cl)cc1)oc1ccccc12,-4.45
23,CCOC(=O)CN(C)Cc1c[nH]c2ccccc12,9.02

row,SMILES,"hERG current change (%, negative = inhibition) at 10uM [%]"
1,CN(Cc1ccsc1)C(=O)CCc1nnc(CCCc2ccccc2)o1,-14.4
2,CC1C(=O)N2CCCc3cc(NC(=O)c4ccccc4C(F)(F)F)cc1c32 (centres unmarked),-0.754
3,CCOC(=O)c1c(C)n(C)c2cc(Br)c(O)c(O)c12,8.12
4,CCCc1nnc(NC(=O)CCC(=O)N2CCN(Cc3ccccc3)CC2)s1,-6.65
5,Cc1cc(C(=O)N/N=C/c2ccccc2[N+](=O)[O-])c(C)o1,27.1
6,O=C(NCCN1CCOCC1)c1ccc(N2CCCC2)c([N+](=O)[O-])c1,-16.1
7,N/C(=N\OC(=O)c1ccccc1)c1ccccn1,12.9
8,O=C(O)CSc1nnc2c(n1)[nH]c1ccccc12,-1.12
9,O=C(CNS(=O)(=O)c1ccc(C(=O)N2CCOCC2)cc1)N1CCOCC1,-1.35
10,Cc1ccccc1CSCCNC(=O)CN(c1ccc2c(c1)OCO2)S(C)(=O)=O,-30.7
11,O=C(CCSc1nnc(-c2ccncc2)o1)Nc1ccc(Cl)cc1,-34
12,CCOC(=O)c1cc(-c2cccs2)nn1CCC#N,-1.57
13,O=C(O)C1C2C=CC(C2)C1C(=O)OCC1CCCO1 (centres unmarked),-15.9
14,O=c1cc(-c2ccc(F)cc2)[nH][nH]1,15
15,CC1Oc2ccccc2N(CC(=O)Nc2ccc(F)cc2)C1=O (centres unmarked),10.5
16,N#CC1(Cc2ccccc2Cl)c2ccccc2C=CN1C(=O)c1ccccc1 (centres unmarked),10.3
17,O=C(COC(=O)C1(c2ccc(F)cc2)CCCC1)N1CCc2ccccc21,6.43
18,CCOC(=O)c1ccc(NC(=S)N(CCCN2CCCCC2)Cc2ccco2)cc1,-72.7
19,CN(CC(=O)Nc1ccc([N+](=O)[O-])cc1Br)Cc1c(F)cccc1Cl,30.1
20,N=c1nc(N2CCCCC2)cc(N)n1O,0.243
21,CCC(C)n1c(-c2ccco2)nc2nc3ccccc3nc21 (centres unmarked),-3.86
22,CC(C)CCN(C(=O)C1CCCC1)c1c(N)n(Cc2ccccc2)c(=O)[nH]c1=O,13.6
23,NC(=O)c1oc2ccccc2c1NC(=O)C1COc2ccccc2O1 (centres unmarked),23.5

row,SMILES,"hERG current change (%, negative = inhibition) at 10uM [%]"
1,O=C(Cn1c2ccccc2c2nc3n(c(=O)c21)CCS3)Nc1ccccc1C(F)(F)F,15.1
2,CCCn1nnc(NC(=O)COc2ccc(C3CCCCC3)cc2)n1,-31.1
3,O=C(NCC1CCCO1)c1ccc(S(=O)(=O)N2CCCCC2)cc1 (centres unmarked),-0.0118
4,COc1ccc(C(c2nnnn2Cc2ccccc2)N2CCN(C(=O)c3ccco3)CC2)cc1OC.Cl (centres unmarked),-19.9
5,CC1N(C)c2cccc3cccc(c23)N1C,-3.85
6,CCOC(=O)C1=C(O)C(=O)N(c2ccc(S(N)(=O)=O)cc2)C1c1ccccc1 (centres unmarked),7.92
7,Cc1cc(NC(=O)CN2C(=O)CC(c3ccco3)Sc3ccccc32)no1 (centres unmarked),-61.8
8,COc1ccc(Nc2cc(C)nc(N3CCN(C(=O)c4ccc5c(c4)OCO5)CC3)n2)cc1,7.63
9,O=[N+]([O-])c1ccccc1Oc1ccc(Cl)c2cccnc12,10.4
10,CNC(=S)Nc1ccc(Nc2ccccc2)cc1,5.02
11,O=C(Nc1ccc(S(=O)(=O)N2CCOCC2)cc1)c1ccccc1Br,-6.72
12,Cc1ccc(OCC(=O)N2CCN(c3ccc([N+](=O)[O-])c(N4CCOCC4)c3)CC2)cc1,-71.4
13,CCOC(=O)N(C)OC(=O)Nc1ccc(Cl)c(Cl)c1,-7.36
14,CCn1c(COc2cccc(OC)c2)nnc1SCC(=O)Nc1cccc(OC)c1,-41.1
15,O=C(O)c1ccc(NS(=O)(=O)c2ccc(NC(=O)c3ccccc3Cl)cc2)cc1,19
16,O=C1Nc2cccnc2N(C(=O)CCl)c2ccccc21,8.63
17,O=C(Cn1cnc2ccccc2c1=O)NCc1ccco1,13.7
18,Cc1cc(SCC(=O)Nc2cccc(S(=O)(=O)NC3=NCCCCC3)c2)c(C)cc1Br,1.54
19,CSc1nc2c(cc1C#N)C(=O)CC(C)(C)C2,-13.8
20,CC(O)c1nc2ccccc2n1CCOc1ccccc1 (centres unmarked),5.97
21,O=C1/C(=C/Nc2cccc([N+](=O)[O-])c2)CCc2ccccc21,-3.67
22,COc1ccc(NC(=O)CSc2nnc(CNC(=O)c3cccs3)o2)c(OC)c1,14.3
23,CCC(=O)NC(c1ccc([N+](=O)[O-])cc1)c1c(O)ccc2ccccc12 (centres unmarked),-17.9

row,SMILES,"hERG current change (%, negative = inhibition) at 10uM [%]"
1,Cc1cc(C)n(CCNC(=O)CC2C(=O)NCCN2CC2CCCCC2)n1 (centres unmarked),1.14
2,Cc1ccccc1Cn1nc(C)c(NC(=O)C(F)(F)F)c1C,-1.86
3,Oc1ccc(C(=S)N2CCN(c3cccc(Cl)c3)CC2)cc1,12
4,Cc1cc(C(=O)Nc2sc(C)c(C)c2C#N)c(C)o1,20.6
5,CCc1ccc(NC(=O)C(=O)NCCN2CCN(S(C)(=O)=O)CC2)cc1,20.5
6,COc1ccc(CCC(=O)Nc2nnc(C(F)(F)F)s2)cc1,0.0181
7,CCOC(=O)c1cc(OC(=O)c2cccs2)n(-c2ccccc2)n1,6.99
8,CCOC(=O)C1CCN(C(=O)CC2C(=O)N(Cc3ccccc3)C(C)c3nc4ccccc4n32)CC1 (centres unmarked),-13
9,CSc1nsc(SCC(=O)Nc2ccccc2)n1,-1.54
10,O=C(Nc1nnc(-c2ccncc2)o1)c1ccc(Br)s1,8.03
11,COC(=O)[C@@H]1CC[C@H](C)[C@@H](c2ccc(C)cc2)N1C(=O)c1ccc(/C=N/O[C@H](C)c2cn([C@@H]3COC[C@H]3O)nn2)cc1,-9.9
12,COc1ccc(CNCCC(c2ccc(OC(C)C)cc2)C(C)C)cc1OC (centres unmarked),-74.5
13,Cc1nnc(NC(=O)CSc2nccn2-c2ccc(F)cc2)s1,-5.7
14,Cc1nn(C(C)C(=O)NCCCN2CCCCCC2)c(=O)c2c1sc1ccccc12 (centres unmarked),-28.1
15,O=C(/C=C/c1ccccc1[N+](=O)[O-])NCCCN1CCCC1=O,11.7
16,Cc1ccccc1-c1nnc(SCc2ccccc2F)o1,-9.35
17,CN1CCN(C(=O)/C(=C\c2ccc3c(c2)OCO3)NC(=O)c2cccs2)CC1,-76.8
18,CC1=C(C(=O)OCC2CCCO2)C(c2cccc(C(F)(F)F)c2)C2=C(CC(c3ccco3)CC2=O)N1 (centres unmarked),6.09
19,CCCCn1nc(C(=O)N(C)C2CCCCC2)c2ccccc2c1=O,-43.1
20,CC(=O)N1CCN(c2nc3cc4c(cc3nc2NS(=O)(=O)c2ccccc2)OCCO4)CC1,5.41
